# Test results taken from the supplement of paper PMC3334620.
# The full ranking holds about 33,000 sequences; the median of “E-score (-0.5 to 0.5)” is about -0.012, and the highest 2% start at about 0.29. This is one part of the list.
# Target: T1, Ybr033w (UniProt P38073)
# T1 sequence: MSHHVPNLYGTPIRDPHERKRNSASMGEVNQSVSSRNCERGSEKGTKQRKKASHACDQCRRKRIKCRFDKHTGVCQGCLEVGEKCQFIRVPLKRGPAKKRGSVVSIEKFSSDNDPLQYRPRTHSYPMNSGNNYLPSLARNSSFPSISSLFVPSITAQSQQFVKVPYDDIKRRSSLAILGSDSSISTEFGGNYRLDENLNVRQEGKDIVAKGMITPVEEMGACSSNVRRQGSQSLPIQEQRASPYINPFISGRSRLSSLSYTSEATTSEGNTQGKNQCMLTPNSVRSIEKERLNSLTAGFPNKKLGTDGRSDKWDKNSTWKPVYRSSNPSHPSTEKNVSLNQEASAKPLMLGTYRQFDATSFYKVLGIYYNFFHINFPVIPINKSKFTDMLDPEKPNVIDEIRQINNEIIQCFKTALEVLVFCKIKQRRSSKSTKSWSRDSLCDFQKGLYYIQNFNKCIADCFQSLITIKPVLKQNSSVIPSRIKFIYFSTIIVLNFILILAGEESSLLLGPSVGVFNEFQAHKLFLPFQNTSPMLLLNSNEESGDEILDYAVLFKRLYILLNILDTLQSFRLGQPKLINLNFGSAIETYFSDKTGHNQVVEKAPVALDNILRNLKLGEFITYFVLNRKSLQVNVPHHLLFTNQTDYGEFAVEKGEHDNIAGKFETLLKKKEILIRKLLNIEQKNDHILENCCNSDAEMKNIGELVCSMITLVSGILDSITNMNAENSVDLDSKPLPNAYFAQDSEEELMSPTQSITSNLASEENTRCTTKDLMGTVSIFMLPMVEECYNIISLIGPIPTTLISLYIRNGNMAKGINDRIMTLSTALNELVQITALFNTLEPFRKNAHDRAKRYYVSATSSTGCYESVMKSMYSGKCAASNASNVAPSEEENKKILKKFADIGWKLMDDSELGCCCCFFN
# Assay: PBM E-score (8-mer binding enrichment) (E-score (-0.5 to 0.5)); higher = stronger / more preferred TF binding; most listed sequences are background and not binding sites
# Settings: protein concentration: 200 nM; construct: GST-full length
# Outline: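 Full-length yeast transcription factors or their DNA-binding domains, GST-tagged and expressed with PURExpress, were applied at about 100-200 nM to universal all-10-mer Agilent arrays. These arrays had been made double-stranded by primer extension on fresh or once-stripped slides. Detection used fluorescent anti-GST, normalisation used masliner, and E-scores for ungapped eight-base words pooled with reverse complements came from the Universal PBM Analysis Suite.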
row,Sequence,PBM E-score
1,AAGTACCT,-0.0912
2,CGAAATTC,0.107
3,ATGCTGGC,-0.00335
4,ACGATCAC,-0.145
5,AACTGCTT,0.0101
6,CGGAAATA,0.433
7,ATTGGTTA,0.212
8,AATAGCCC,-0.0499
9,TACGCGGA,0.0454
10,ACGCCGCG,-0.129
11,CCCTAGAA,-0.0272
12,ACACGTAT,0.11
13,CAGAACGG,-0.191
14,CGTCCCGA,-0.0892
15,CTACCGAC,-0.117
16,ATTTTGAC,0.171
17,AAAACGGT,-0.016
18,GCCCAGCC,-0.099
19,GACTATAA,0.102
20,AACCACCC,-0.235
21,ACTGATCC,0.00583
22,CAATTACG,0.0611
23,AATCACAG,0.0305
24,AAACAAAT,0.287
25,GCAAAACC,-0.0331

row,Sequence,PBM E-score
1,CTGAAACC,-0.00354
2,CGGGTAGA,-0.0322
3,AAGGGGAG,-0.235
4,CATCACCA,-0.0166
5,CCTCCACG,-0.12
6,ATTTGCGA,0.255
7,ACCTTTTC,-0.0691
8,TCTAAAAA,0.147
9,CTGCAGTA,-0.0696
10,TGAAAGAA,0.188
11,CCCGCCGC,-0.016
12,GTTTGACA,0.0683
13,AGATCCGG,-0.0199
14,CCATGTTC,-0.149
15,GACGCGAA,0.0187
16,AAAAGAAT,0.261
17,ACGCACGT,-0.133
18,ACGATAGA,-0.131
19,ACATAACG,0.238
20,CCTTTATA,0.0474
21,CCCCGTGC,-0.195
22,CGCGTACC,-0.0861
23,TACGACAA,0.138
24,CTACAGTC,-0.185
25,ATCGCGGA,-0.0841

row,Sequence,PBM E-score
1,GTGCGAAC,-0.122
2,AGCCTTTA,0.0955
3,AGAAGATG,0.0792
4,ACAGGTAT,0.204
5,ACCACTCC,-0.087
6,ATCATCAG,0.0449
7,TATGTAAA,0.244
8,CCGGCGCG,-0.151
9,CGGTTGGA,0.0125
10,AACAAGCA,0.11
11,CCGCTTCG,-0.237
12,AGTATCAA,0.224
13,ATTGCAGG,-0.0365
14,TTTACAAA,0.271
15,AGATGGTG,-0.108
16,ATTGAAAT,0.296
17,AAACGTCA,-0.0509
18,CCACTACG,-0.159
19,GGTGGGCA,-0.207
20,GAGACAGA,-0.0423
21,ATTCGGTC,-0.00492
22,CAACGCGA,-0.135
23,GTTGGCCA,-0.115
24,GAACGAGA,-0.0948
25,ACCGCGCA,-0.0661

row,Sequence,PBM E-score
1,ACGGACGC,-0.127
2,TAGTTGCA,0.0995
3,CGTCAACC,-0.00887
4,GATATTTA,0.338
5,CCACGACA,-0.21
6,CAGGGAGG,-0.241
7,CTGTTATC,0.121
8,ACGCTGGA,-0.096
9,GCCGCAGC,-0.276
10,ACCTCATG,-0.276
11,GGAGAATA,0.198
12,GCGGGTGA,-0.104
13,GTTTTAAA,0.165
14,CGTGCGGC,-0.204
15,CAGAAGCG,0.0103
16,ACCGTAGC,-0.109
17,GTGTCCAA,0.0396
18,GTAATTAC,0.218
19,AGCGGCTG,-0.0668
20,GAAAGGGA,-0.0854
21,GCACTAAC,-0.112
22,ATCCTGGC,-0.0209
23,AATTCAGC,0.107
24,AGCACGAC,-0.0495
25,AATTTTGT,0.215

row,Sequence,PBM E-score
1,CACAGTCC,-0.197
2,CTGTGCTC,-0.0511
3,GAACTCAA,0.0888
4,AGGCGTCG,-0.162
5,CAGTTATG,0.0877
6,AGTATGCG,-0.00038
7,CCCCGCCA,-0.00658
8,AGACTTAT,-0.00502
9,GCACCCGA,-0.0735
10,AACGTGCT,-0.156
11,AAATAATA,0.344
12,CGGCAGAC,-0.135
13,AGCGGTTG,0.00536
14,ACCAACGG,-0.173
15,ATGGTGCC,-0.171
16,AGCAGGGG,-0.279
17,GGACCCGA,-0.153
18,GTGACAAA,-0.0827
19,TCGTGAAA,-0.0359
20,TAAATACA,0.229
21,TGTGCTAA,0.234
22,GGACTTTA,-0.00904
23,AACTCTCG,0.073
24,AACCTTAG,-0.142
25,TAATGAAA,0.238

row,Sequence,PBM E-score
1,TACTTACA,0.011
2,CAGGCGAG,-0.245
3,AGGACATC,0.028
4,CGCGCAGA,0.0903
5,ATGGTGGG,-0.245
6,ATCGGAAA,0.286
7,GCCTACCC,-0.191
8,GTTCAAGA,0.124
9,ATGGAGCA,-0.0275
10,CCGCCGTC,-0.0904
11,GCCCTACC,-0.151
12,AACTCCTC,-0.053
13,GCGGCATA,0.0599
14,CGACTTGA,-0.0147
15,CACACTAG,0.0753
16,ACGACGTG,0.0301
17,TGACAGCA,0.136
18,ACGAATGA,0.0902
19,GGCTACAA,-0.149
20,CCACTGTA,0.0804
21,AATCGGAC,-0.095
22,AAGTCCAC,-0.0692
23,GCGTATCA,0.0712
24,CAGCGGCA,-0.202
25,GGCGTGAA,-0.174

row,Sequence,PBM E-score
1,ACTGAGCG,-0.0469
2,ACCAGTGA,-0.111
3,CTAGCCTC,-0.139
4,GAATTGAA,0.246
5,ACAGGCTG,-0.109
6,GACAAGGC,-0.196
7,ACGGGAAA,0.0598
8,AATAACTG,0.271
9,GCTCGAGC,-0.0188
10,CAGACTGA,-0.103
11,CTATTTCC,0.276
12,ACATACGT,-0.0225
13,CACACCCC,-0.251
14,AGGGGGTG,-0.353
15,ATAGGTCA,0.114
16,ACAATGAC,-0.0405
17,GAATTTAC,0.181
18,CGCCTGAA,-0.00563
19,GGTACGTA,0.00587
20,CAAGGCAA,-0.0761
21,ACCCAAAA,0.0634
22,ACCCGGCG,-0.187
